According to PubChem BioAssay AID2546 (National Center for Advancing Translational Sciences (NCATS), 2010):
The whole screen tested about 310,000 compounds, of which about 11,000 (3.5%) were called active. Inconclusive results, whose numbers are uncertain, are shown with a selection of clear calls. Calls follow the shape of the dose curve; as a rule, active = well fitted inhibition curve with a large enough effect; inconclusive = small, poorly fitted or top-dose-only effect, or effect the other way; inactive = flat fitted curve, though single readings scatter. Potencies of inconclusive entries are left out as doubtful fits.

Experiment: VP16 counterscreen qHTS for inhibitors of ROR gamma transcriptional activity;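 also: Gal4-VP16 expression switched on by copper sulfate through the metallothionein promoter; nearly all actives have a fitted effect of over 50% in size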
Details: Drosophila S2 Gal4-VP16 UAS-luciferase, luminescence, 20 h; series mostly up to 53.6 µM
Potency is read from the fitted curve at half-maximal effect; tags tell the direction and shape of the fitted curve.

| Structure (SMILES) | Potency |
| --- | --- |
| C=C(C)CSc1nnc(-c2ccc(C)cc2)n1N | inconclusive [inhibitor, single point] |
| O=C(Nc1cc([N+](=O)[O-])ccc1C(=O)NCCN1CCOCC1)c1ccccc1 | inactive |
| CN(C)CCCN(C(=O)c1ccc(S(=O)(=O)N2CCCCCC2)cc1)c1nc2ccc(Br)cc2s1 | active: 17.8 µM |
| COc1cc(CCN2C(=O)N[C@@H](c3cccc(C(F)(F)F)c3)C(C(C)=O)=C2C)cc(OC)c1OC | inconclusive [inhibitor, partial curve, poor fit] |
| O=C(Nc1ccccc1)c1cccc(C(=O)Nc2ccccc2)n1 | inactive |
| O=C1NC(c2ccc(Br)cc2)=N/C1=C/c1ccco1 | inconclusive [inhibitor, single point] |
| O=C(NC1CCN(C(=O)N2c3ccccc3Sc3ccccc32)CC1)c1ccco1 | inconclusive [inhibitor, single point] |
| Cc1nn(C)c(C)c1CN(C)S(=O)(=O)c1ccc(F)cc1 | inconclusive [inhibitor, partial curve] |
| O=C(NN=C1C2CC3CC(C2)CC1C3)c1cccc(S(=O)(=O)N2CCOCC2)c1 | inactive |
| COc1cccc(NC(=S)NCc2ccc(F)cc2)c1 | active: 7.08 µM |
| COc1cc(OC)c(C(=O)/C=C/c2ccccc2)c(O)c1O | active: 10 µM |
| Nc1c(C(=O)Nc2cccc(Cl)c2Cl)sc2nc(-c3cccnc3)ccc12 | inactive |
| Fc1c(F)c(F)c(/C=N/NC(=S)Nc2cccnc2)c(F)c1F | active: 3.55 µM |
| CC1CN(c2nc(-c3ccc(Br)cc3)nnc2-c2ccccc2)CC(C)N1 (stereo not given) | inconclusive [inhibitor, single point] |
| COc1ccc(CCNC(=S)NC(=O)c2cccc(Cl)c2)cc1OC | inconclusive [inhibitor, single point] |
| CCCCCc1cc(=O)oc2c(C(CCN3CCN(c4ccccc4)CC3)c3ccc4c(c3)OCO4)c(OC)cc(OC)c12 (stereo not given) | inactive |
| CCOc1ccc(/C=C/[N+](=O)[O-])c2ccccc12 | inconclusive [inhibitor, single point] |
| O=C(Nc1nc2ccccc2s1)c1cnccn1 | active: 5.01 µM |
| CSc1ccc(/C=N/NC(=O)CNc2cccc3ccccc23)cc1 | inconclusive [inhibitor, partial curve] |
| Cc1cc2cc(C#N)c(NCCNC(=S)NCCCN3CCOCC3)nc2cc1C | inactive |
| CCOc1ccc(Cn2c3ccc(OC)cc3c3nc4ccccc4nc32)cc1OC | inconclusive [inhibitor, single point] |
| Cc1ccc(NC(=O)CN2C(=O)N/C(=C/c3cc(C)n(-c4cccc(C(=O)O)c4)c3C)C2=O)cc1 | inactive |
| CCCCC(=O)Nc1sc2c(c1-c1nc3ccccc3s1)CCN(C(C)=O)C2 | inconclusive [inhibitor, single point] |

| Structure (SMILES) | Potency |
| --- | --- |
| NCC(=O)N[C@@H](CCCN=C(N)N)C(=O)NCC(=O)N[C@@H](CC(=O)O)C(=O)N[C@@H](CO)C(=O)N1CCC[C@H]1C(=O)O | inactive |
| C(=C1/CCCC2=C1Nc1ncnn1C2c1ccccc1)/c1ccccc1 (stereo not given) | active: 3.98 µM |
| COC(=O)c1cccc(Cn2c(Cl)c(/C=N/Nc3ccccc3C)sc2=O)c1 | inconclusive [inhibitor, single point] |
| COc1cc(NC(=O)c2sc3ncn(CC(=O)N4CCCC(C)C4)c(=O)c3c2C)cc(OC)c1OC (stereo not given) | inactive |
| O=C1N/C(=N\N=C\c2cccs2)SC1Cc1cccc(Cl)c1Cl (stereo not given) | active: 0.224 µM |
| O=C(COC(=O)/C=C/c1ccco1)NCc1ccc2c(c1)OCO2 | inactive |
| CC(=O)c1ccc(NC(=O)COC(=O)c2ccccc2Nc2ccccc2)cc1 | inconclusive [inhibitor, single point] |
| CCOc1ccccc1NC(=O)C(OC(=O)c1ccccc1O)c1ccccc1 (stereo not given) | inconclusive [inhibitor, partial curve] |
| CCC(C)c1ccc(S(=O)(=O)Nc2cccnc2)cc1 (stereo not given) | inconclusive [inhibitor, single point] |
| O=C(Nc1ccc(CSc2ccccc2)cc1)c1ccc(CN2CCOCC2)cc1 | inconclusive [inhibitor, single point] |
| COc1cc2nc(SCc3ccc(F)cc3)n(Cc3cccs3)c(=N)c2cc1OC | inconclusive [inhibitor, single point] |
| CCN(CC)CCOc1ccc2c(c1)C(=NO)c1cc(OCCN(CC)CC)ccc1-2 | inactive |
| O=C(CCN1C(=O)C2C3C=CC(C3)C2C1=O)Nc1ccccn1 (stereo not given) | inactive |
| Cc1cc(N2CCOCC2)ccc1/C=C\[N+](=O)[O-] | active: 10 µM |
| C#CCOCCOCCOCCNc1nc(N2CCN(C(=O)[C@H]([C@@H](C)CC)n3cc([C@@H](N)CO)nn3)CC2)nc(N2CCN(C(=O)[C@H](Cc3cc4ccccc4[nH]3)n3cc([C@@H](N)C(C)CC)nn3)CC2)n1 (stereo not given in full) | inactive |
| O=c1cc(CNc2cc(C(F)(F)F)cc(C(F)(F)F)c2)nc2sccn12 | inconclusive [inhibitor, single point] |
| O=C(CCCN1C(=O)S/C(=C\C=C\c2ccccc2)C1=O)Nc1ccc(O)cc1 | inconclusive [inhibitor, full curve, poor fit] |
| CCOc1ccc(N2C(=O)CC(SCc3nc4ccccc4[nH]3)C2=O)cc1 (stereo not given) | inconclusive [inhibitor, single point] |
| CN(Cc1nc2ccccc2n1C)S(=O)(=O)c1ccc(F)cc1 | inconclusive [activator, partial curve, poor fit] |
| COc1ccc(C2=NN(C(C#N)c3ccc(OC)c(OC)c3)C(c3ccccc3)C2)cc1 (stereo not given) | inconclusive [inhibitor, single point] |
| COc1ccc(NC(=O)COc2cccc3c2CCN(C)C3=O)c(OC)c1 | inactive |
| COc1ccc(N2CCN(Cc3nc(N)nc(Nc4ccc(C)c(Cl)c4)n3)CC2)cc1 | inconclusive [inhibitor, single point] |
